Experimental data as given in paper PMC4336329 (PLoS ONE, 2015).
The whole screen tested about 310,000 compounds, of which about 14,000 (4.5%) showed an effect of 50% or more. The effect is printed as a negative number. The list shows a part of the results.

target: human ether-à-go-go-related gene (hERG) potassium channel (human, UniProt Q12809); test: primary screen, population patch clamp on CHO cells stably expressing hERG
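Note: peak tail current of the secondary pulse compared with the same well before compound.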

human ether-à-go-go-related gene (hERG) potassium channel, sequence (Q12809 whole entry, looked up): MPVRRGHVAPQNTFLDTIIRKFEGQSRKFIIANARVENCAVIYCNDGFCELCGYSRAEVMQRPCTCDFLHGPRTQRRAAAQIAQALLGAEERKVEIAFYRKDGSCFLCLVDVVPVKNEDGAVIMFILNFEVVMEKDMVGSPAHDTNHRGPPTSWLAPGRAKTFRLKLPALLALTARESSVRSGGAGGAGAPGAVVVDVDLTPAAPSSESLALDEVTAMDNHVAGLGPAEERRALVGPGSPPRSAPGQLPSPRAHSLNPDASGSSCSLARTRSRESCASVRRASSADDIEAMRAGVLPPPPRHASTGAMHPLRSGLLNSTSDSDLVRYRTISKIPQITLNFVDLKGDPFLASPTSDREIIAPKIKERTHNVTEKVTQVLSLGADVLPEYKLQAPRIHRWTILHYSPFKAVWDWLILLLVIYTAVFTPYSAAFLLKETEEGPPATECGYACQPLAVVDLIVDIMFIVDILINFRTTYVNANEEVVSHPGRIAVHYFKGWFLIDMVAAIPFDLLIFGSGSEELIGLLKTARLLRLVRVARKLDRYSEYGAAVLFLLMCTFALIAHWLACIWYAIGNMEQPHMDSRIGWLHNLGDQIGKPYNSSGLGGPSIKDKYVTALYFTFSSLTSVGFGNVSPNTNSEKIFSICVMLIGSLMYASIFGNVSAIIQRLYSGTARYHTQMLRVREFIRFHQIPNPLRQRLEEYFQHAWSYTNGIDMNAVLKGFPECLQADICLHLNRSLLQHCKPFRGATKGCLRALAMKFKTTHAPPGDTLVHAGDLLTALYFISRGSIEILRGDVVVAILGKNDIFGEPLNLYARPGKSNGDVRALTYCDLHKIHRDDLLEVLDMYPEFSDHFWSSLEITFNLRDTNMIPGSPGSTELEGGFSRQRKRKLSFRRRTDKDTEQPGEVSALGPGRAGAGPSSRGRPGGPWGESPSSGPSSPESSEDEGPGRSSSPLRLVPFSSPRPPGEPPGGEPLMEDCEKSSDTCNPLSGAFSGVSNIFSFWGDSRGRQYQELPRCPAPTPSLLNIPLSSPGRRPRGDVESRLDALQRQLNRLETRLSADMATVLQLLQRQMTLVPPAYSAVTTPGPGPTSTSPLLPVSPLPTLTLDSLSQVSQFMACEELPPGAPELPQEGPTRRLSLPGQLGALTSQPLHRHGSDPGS

Row | Structure (SMILES) | hERG current change (%, negative = inhibition) at 10uM [%]
1 | COc1ccc(C(=S)N2CCOCC2)cc1OC(=O)c1cc([N+](=O)[O-])c(C)c([N+](=O)[O-])c1 | -2.94
2 | COc1cc(C(=S)N2CCOCC2)cc(OC)c1OC | 6.11
3 | Clc1cccc(N2CCNCC2)c1Cl | -3.75
4 | COc1ccc(C(=O)NC(=S)Nc2ccc(CN3CCCCC3)cc2)cc1Cl | -42.7
5 | CC(NC(=O)COC(=O)/C(=C/c1cccs1)c1cccs1)c1ccccc1 (centres unmarked) | 1.71
6 | O=C(Nc1ccc(N2CCCC2)c(Cl)c1)c1ccc2c(c1)OCCO2 | 11.8
7 | CN(C)CCN(C(=O)c1cccs1)c1nc2cc3c(cc2s1)OCCO3.Cl | -23.6
8 | CCC1CCCCN1C(=O)/C=C/c1ccc2c(c1)OCO2 (centres unmarked) | -20.7
9 | CC(=O)c1ccc(NC(=O)CN2CCC(NC(=O)C3CCCCC3)CC2)cc1 | -6.72
10 | O=C(O)c1cccc(S(=O)(=O)Nc2cc(Cl)ccc2Cl)c1 | 14.1
11 | CC(=O)N1CCN(c2ccc(NC(=O)c3cc(Cl)ccc3Cl)cc2)CC1 | 20.2
12 | Cn1c(=O)c(=O)n(C)c2cc(S(=O)(=O)N3CCN(c4ccc(F)cc4)CC3)ccc21 | -15.8
13 | Cc1oc(-c2ccccc2F)nc1CS(=O)(=O)CC(=O)NCCCc1ccccc1 | -9.05
14 | CC1CCN(CCCn2c(=S)[nH]c3c(sc4ccccc43)c2=O)CC1.Cl | -2.06
15 | O=C(CCOc1ccccc1)Nc1ccc(S(=O)(=O)Nc2ncccn2)cc1 | -18.2
16 | O=C(CCCC(=O)OCC1CCCO1)OCC1CCCO1 (centres unmarked) | 8.27
17 | Cc1cc(C)c2c(N)c(C(=O)N/N=C/c3ccccc3)sc2n1 | 19
18 | O=C(NCc1ccccc1C(F)(F)F)C1CC(c2cccc(F)c2)=NO1 (centres unmarked) | -3.26
19 | Cc1ccc(Oc2c(CO)c(-c3ccccc3)nn2C)cc1 | 12.4

Row | Structure (SMILES) | hERG current change (%, negative = inhibition) at 10uM [%]
20 | COc1ccc([C@H]2/C=C\CN(S(=O)(=O)c3ccc(C)cc3)[C@@H](C)C(=O)N2Cc2ccc(F)cc2)cc1 | -44
21 | CCOCCOC(=O)C(C)Sc1n[nH]c(=O)[nH]c1=O (centres unmarked) | 5.53
22 | O=C(Cc1cccs1)N1CCN(S(=O)(=O)c2ccc(F)c(F)c2)CC1 | -19.9
23 | Cc1cc(C)cc(-n2ncc3c2CCCC3NC(=O)c2ccccc2N2CCOCC2)c1 (centres unmarked) | -30.5
24 | O=C(N/N=C/c1ccc(-c2ccccc2Cl)o1)c1ccccc1 | 12.4
25 | COc1ccc(/C=N\NC(=O)c2c(C)nc3ccc(Br)cn23)cc1 | 0.421
26 | O=C(COC(=O)c1n[nH]c2ccccc12)c1cc(F)ccc1F | 1.25
27 | COc1ccc(CCC(=O)N2CCN(C3CCCCC3)CC2)cc1 | -69.1
28 | COc1ccc(NC(=O)Nc2ccc(OC)c(OC)c2)c([N+](=O)[O-])c1 | 11.1
29 | COc1ccc(CCNC(=O)CN(c2ccc(OC)c(OC)c2)S(=O)(=O)c2ccccc2)cc1OC | -9.79
30 | CCOC(=O)c1cc(C#N)c(Nc2ccc(C)cc2)nc1C(F)(F)F | 12
31 | Nc1ccnn1Cc1ccncc1 | 13
32 | CC(=O)N(CCOc1ccccc1)CCOc1ccccc1 | -7.74
33 | CN(CC(=O)Nc1ccccc1Cl)C(=O)CSc1nnc(-c2ccco2)o1 | -7.79
34 | CCOc1ccc(NS(=O)(=O)c2ccc(C(=O)N3CCCCCC3)cc2)cc1 | -15.4
35 | Cc1nc2nc(C)c(NS(=O)(=O)c3ccc(C4CCCCC4)cc3)c(=O)n2[nH]1 | 24.2
36 | COc1cccc(-c2noc(CCC(=O)NCCc3ccccc3)n2)c1 | -9.49
37 | O=C(C[n+]1ccccc1)N/N=C/c1ccc(C(=O)O)cc1.[Cl-] | 0.121
38 | COC(=O)c1ccccc1S(=O)(=O)N1CCC(C(=O)OCC(=O)NC2CCCCC2C)CC1 (centres unmarked) | -20.2

Row | Structure (SMILES) | hERG current change (%, negative = inhibition) at 10uM [%]
39 | Cc1noc(-c2ccccc2)c1NC(=O)Nc1ccc(Cl)cc1 | 7.78
40 | COc1ccc(OC)c(CNC(=O)CCCc2cn(C)c3ccccc23)c1 | -3.98
41 | O=C(O)c1sc2cccc(Cl)c2c1Cl | -0.477
42 | COc1ccc(NC(=O)C2CC(c3ccccc3O)=NO2)cc1OC (centres unmarked) | 13.5
43 | COC(=O)C1=C(c2ccccc2)C[C@@H]2CC[C@H]1N2C(=O)NCc1ccc(F)cc1 | -9.03
44 | CCc1nnc(NC(=O)CSc2ncnc3scc(-c4ccc(C)cc4)c23)s1 | -4.72
45 | COc1ccc(-c2cc3cc(OC)c(OC)cc3cn2)cc1OC.Cl | 15.2
46 | CC1(C)C2CCC(C2)C1(C)NC(=O)CNCc1cccs1.Cl (centres unmarked) | 1.81
47 | COC(=O)c1ccc2nccnc2c1 | 4.88
48 | COc1cc(/C=C/[N+](=O)[O-])ccc1OC(=O)c1cc2ccccc2oc1=O | 20.1
49 | Cc1cc(NC(=O)/C=C/C(=O)N(CC(=O)NC2CCCC2)c2ccc(F)cc2)no1 | 0.716
50 | COc1ccc(CCn2c(O)c(/C=N/NC(=O)c3ccncc3)c(=O)[nH]c2=O)cc1OC | 24.7
51 | CCOC(=O)C(CCCCCOc1ccc([N+](=O)[O-])cc1)C(=O)OCC | -50.4
52 | CCOC(=O)Nc1ccc(C(=O)/C=C/c2ccccc2)cc1 | -7.78
53 | c1ccc(-c2noc(CC3CCCCC3)n2)cc1 | 12.6
54 | Cc1ccc(NC(=O)CSc2sc3c(O)cc(=O)[nH]c3c2C#N)c(F)c1 | -12
55 | CCOc1ccc(N=C2NC(=O)S/C2=C\c2ccc(Cl)cc2)cc1 | 16.2
56 | CCc1ccc2oc(C(=O)N3CCN(c4ccccc4OC)CC3)cc(=O)c2c1 | -68.7
